Assay results as given in PMC4336329 (PLoS ONE, 2015).
About 2,200 (0.71%) of roughly 310,000 compounds showed an effect of 50% or more. The effect is printed as a negative number. Some of the results follow.

These molecules were tested against human ether-à-go-go-related gene (hERG) potassium channel (human, UniProt Q12809) (assay: primary screen, population patch clamp on CHO cells stably expressing hERG).
Sequence of human ether-à-go-go-related gene (hERG) potassium channel (Q12809 whole entry, looked up): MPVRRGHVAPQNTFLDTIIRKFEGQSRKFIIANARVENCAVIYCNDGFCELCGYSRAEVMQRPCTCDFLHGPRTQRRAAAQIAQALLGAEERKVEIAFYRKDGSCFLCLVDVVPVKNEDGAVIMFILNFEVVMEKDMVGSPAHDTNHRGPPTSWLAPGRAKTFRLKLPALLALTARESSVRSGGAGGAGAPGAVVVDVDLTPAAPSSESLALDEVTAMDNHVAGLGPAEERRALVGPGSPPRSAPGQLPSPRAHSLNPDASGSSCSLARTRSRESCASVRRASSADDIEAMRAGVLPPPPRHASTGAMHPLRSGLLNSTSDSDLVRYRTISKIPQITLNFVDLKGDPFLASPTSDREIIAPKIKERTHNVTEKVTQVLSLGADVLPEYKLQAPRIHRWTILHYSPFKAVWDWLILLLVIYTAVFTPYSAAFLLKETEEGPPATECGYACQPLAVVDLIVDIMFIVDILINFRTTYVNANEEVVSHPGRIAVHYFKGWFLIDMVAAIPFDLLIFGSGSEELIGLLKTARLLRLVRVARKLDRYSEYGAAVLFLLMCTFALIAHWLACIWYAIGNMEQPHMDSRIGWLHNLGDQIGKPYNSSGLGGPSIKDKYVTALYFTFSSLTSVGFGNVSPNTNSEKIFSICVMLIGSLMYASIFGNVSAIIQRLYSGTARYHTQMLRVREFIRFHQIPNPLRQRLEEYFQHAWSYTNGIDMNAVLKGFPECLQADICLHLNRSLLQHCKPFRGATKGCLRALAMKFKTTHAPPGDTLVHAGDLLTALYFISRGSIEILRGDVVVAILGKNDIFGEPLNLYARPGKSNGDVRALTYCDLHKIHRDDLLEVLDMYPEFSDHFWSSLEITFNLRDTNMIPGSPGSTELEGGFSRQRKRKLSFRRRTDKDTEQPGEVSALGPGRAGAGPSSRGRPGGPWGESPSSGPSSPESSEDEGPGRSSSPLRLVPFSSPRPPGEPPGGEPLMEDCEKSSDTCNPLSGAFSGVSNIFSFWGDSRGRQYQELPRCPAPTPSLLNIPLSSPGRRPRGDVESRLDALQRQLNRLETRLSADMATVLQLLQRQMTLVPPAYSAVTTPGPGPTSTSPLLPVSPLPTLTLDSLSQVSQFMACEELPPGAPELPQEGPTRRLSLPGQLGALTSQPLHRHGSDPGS

Row | SMILES | hERG current change (%, negative = inhibition) at 1uM
1 | CC(C)CC(=O)N1CCN(C(=O)c2cccc(F)c2)CC1 | 4.6%
2 | COc1cc(O)c(C(CC(=O)N2CCCC2)c2ccc(N(C)C)cc2)c(OC)c1 (centres unmarked) | 21%
3 | CC1=NN(c2ccccc2)C(=O)C1=C(C)C | 14.5%
4 | COc1ccc(-c2nc(CS(=O)CC(=O)NCc3ccc(F)cc3)c(C)o2)cc1 (centres unmarked) | 12.5%
5 | COc1cc(NS(=O)(=O)c2ccc(NC(=S)NC(=O)c3cccs3)cc2)nc(OC)n1 | 1.28%
6 | CCOC(=O)C1(CC2CCCCO2)CCN(Cc2nc(-c3cccs3)oc2C)CC1 (centres unmarked) | -45.5%
7 | CCOC(=O)C1CCCN(S(=O)(=O)Cc2ccccc2Cl)C1 (centres unmarked) | 9.11%
8 | COc1ccccc1/C=N/NC(=O)CC(=O)NC1CCCCC1 | 11.2%
9 | CN1C(=O)C(=Cc2ccc(N3CCCCC3)o2)C(=O)N(C)C1=S | 7.51%
10 | Cc1ccccc1NC(=O)CSc1nnc(CNC(=O)c2ccc3c(c2)OCO3)n1C | 12.7%
11 | CC(C)CN(C(=O)CN1CCCCCC1)c1c(N)n(CC(C)C)c(=O)[nH]c1=O | 16.7%
12 | CC(C)N1C(=S)SC(C)(C)C1NO (centres unmarked) | 7.95%
13 | CC(=O)c1c(C)oc2ccc(NS(=O)(=O)c3ccc(O)c(C(=O)O)c3)cc12 | 13%
14 | Cc1nc2sc3c(c2c(=O)n1NC(=O)CCl)CCCC3 | 15.3%
15 | CCOc1c2ccc(C(=O)NCc3ccccc3OC)cc2nn1CC | 14.8%
16 | CCOC(=O)/C=C/C(=O)Nc1ccc(S(=O)(=O)Nc2cc(C)on2)cc1 | 10.3%
17 | CCCCOc1ccc(-c2nnn(C(C)C(=O)OCC)n2)cc1 (centres unmarked) | 10.8%
18 | COC(=O)c1ccccc1NC(=O)CSc1nnc(-c2cccc(NC(C)=O)c2)n1C | 2.9%
19 | CCNC(=O)c1ccccc1-c1nc(-c2ccccc2OC)no1 | 11.8%
20 | CCOC(=O)C1=C(C)OC(N)=C(C#N)C1c1c(C)nn(-c2ccccc2)c1Cl (centres unmarked) | 6.47%
21 | CCOc1ccccc1OCCCC(=O)Nc1ccc(OC)nc1 | 8.35%
22 | COC(=O)c1ccc(C(c2c(N)n(Cc3ccccc3)c(=O)n(C)c2=O)N2CCOCC2)cc1 (centres unmarked) | -12.5%
23 | O=S(=O)(c1ccc(F)cc1)N1CCC(c2nc3ccccc3[nH]2)CC1 | 1.03%

Row | SMILES | hERG current change (%, negative = inhibition) at 1uM
24 | COc1ccc(Cl)cc1-c1nc(N)nc(N(C)C)n1 | -4.35%
25 | CCOc1ccc(NC(=O)NC2CCCc3ccccc32)cc1 (centres unmarked) | 12.4%
26 | O=C(NCc1ccccn1)c1cc(-c2ccc(Cl)cc2)oc1C(F)(F)F | 9.77%
27 | Cc1ccc(C(=O)NCCC(=O)N2CCOCC2)cc1 | 12.6%
28 | CC(OC(=O)CCN=C1NS(=O)(=O)c2ccccc21)C(=O)Nc1ccc(F)c(F)c1F (centres unmarked) | 4.18%
29 | O=C(CCCCCN1C(=O)c2cccc([N+](=O)[O-])c2C1=O)Nc1ccccc1F | 15.3%
30 | O=C(O)CCN1CCc2ccccc2C1c1ccncc1 (centres unmarked) | 14.8%
31 | CCOC(=O)C1CCCN(C(=O)/C=C/c2ccc([N+](=O)[O-])cc2)C1 (centres unmarked) | -47.2%
32 | CC(=O)c1ccc(OCC(=O)Nc2ccc3c(c2)CCC3)cc1 | 19.4%
33 | S=C(Nc1ccc2nccnc2c1)N1CCCC1 | 42%
34 | CN1CCN(/C=N/c2c(C#N)cnn2-c2ccccc2)CC1 | -14.3%
35 | CCOC(=O)C(Cc1ccc(NC(=O)/C(=C/c2ccc(OC(C)=O)cc2)NC(C)=O)cc1)N1C(=O)c2ccccc2C1=O (centres unmarked) | 12.4%
36 | CC(C)=NN1C(=O)c2ccccc2NC1(C)C | 6.62%
37 | Cl.NCCCCCc1nnc(SCc2ccc(Cl)c(Cl)c2)o1 | 2.47%
38 | CSc1ccc(CN2CCCN(C)CC2)cc1 | 8.54%
39 | COc1cc(C)c(Cl)c(C)c1S(=O)(=O)NCc1cccnc1 | 11.9%
40 | CC1CCCN(c2ccc(C(=O)Nc3nnc(C4CC4)s3)cc2[N+](=O)[O-])C1 (centres unmarked) | 14.7%
41 | O=C(c1cc2c(s1)-c1ccccc1OC2)N1CCCC1 | 1.5%
42 | COc1ccc(NC(=O)C2CCN(S(C)(=O)=O)CC2)cc1OC | 16.9%
43 | CCOc1cc(CNc2ccc3c(c2)CCC3)ccc1O | 17.7%
44 | Cc1cccc(CSc2nc3sc(C)c(C)c3c(=O)n2Cc2ccco2)c1 | 15.4%
45 | COc1ccc(C(=O)CC(c2ccccc2)C2CCCCC2=O)cc1 (centres unmarked) | 13.7%
46 | COc1cccc(C(=O)NCC(=O)N2CCC(C)CC2)c1 | 9.4%

Row | SMILES | hERG current change (%, negative = inhibition) at 1uM
47 | C#CCOC(=O)c1cc(Cl)c(=O)n(Cc2ccc(Cl)cc2Cl)c1 | 4.75%
48 | CCCSc1nc(NCc2ccco2)c2c3c(sc2n1)COC(C)(C)C3 | 4.9%
49 | COc1ccc(C2=NN(S(C)(=O)=O)C(c3cccs3)C2)cc1 (centres unmarked) | 6.45%
50 | O=C(Nc1ccccc1)c1cc([N+](=O)[O-])ccc1N1CCNCC1 | 1.3%
51 | OC(CNC1CCCCC1)c1ccccc1 (centres unmarked) | 16.4%
52 | c1ccc(-c2nc(-c3ccccn3)no2)cc1 | 9.94%
53 | O=C(c1cc(Br)c[nH]1)N1CCSCC1 | 16%
54 | CC(=O)C(C)Oc1ccc(Cc2ncc(C(F)(F)F)cc2Cl)cc1 (centres unmarked) | -3.77%
55 | C=C(C)CN=c1scc(C)n1/N=C/c1ccco1 | 1.93%
56 | Cc1ccccc1NCC(=O)N=Nc1c(O)[nH]c2ccc([N+](=O)[O-])cc12 | 6.74%
57 | CCCN1CCN(C(=O)c2oc3ccccc3c2NC(=O)C2CC2)CC1 | 4.69%
58 | Cc1c(Cl)cnc(NC(=O)COC(=O)c2cccc(S(=O)(=O)N3c4ccccc4CC3C)c2)c1Cl (centres unmarked) | 1.41%
59 | Cc1cccc(Cl)c1NC(=S)NCCc1ccccn1 | 12%
60 | Cc1cc(Cl)c(S(=O)(=O)N2CCSCC2)cc1OCC(=O)NC1CCCCC1 | -0.828%
61 | O=c1cc(C(F)(F)F)[nH]c(=S)n1-c1ccccc1 | 23.5%
62 | NNc1nc(-c2ccccc2)cc(-c2ccc(Br)cc2)n1 | 9.29%
63 | CCCc1nnc2c(N(C)S(=O)(=O)c3ccc(C)cc3)nc3ccccc3n12 | 4.28%
64 | FC(F)(F)c1ccc(Cl)c(N/N=C/c2ccc(N3CCOCC3)s2)c1 | 12.5%
65 | Clc1ccccc1OCc1nc(-c2ccc(Br)o2)no1 | 13.3%
66 | C[C@@]12CCC=C[C@H]1[C@H](c1ccoc1)N(Cc1ccccc1)C2=O | 1.22%
67 | COCCN1C(=O)C(O)=C(C(=O)c2cccs2)C1c1ccccc1 (centres unmarked) | 11.1%
68 | CCCC1CCc2c(sc(NC(=O)OCC)c2C#N)C1 (centres unmarked) | 1.41%
69 | CC1CCCCN1c1nnc(NC(=O)Cn2c(=O)oc3ccccc32)s1 (centres unmarked) | 15.3%

Row | SMILES | hERG current change (%, negative = inhibition) at 1uM
70 | CCc1ccc(OCC(=O)NNC(=O)c2ccc(NC(=O)C3CC3)cc2)cc1 | 11.9%
71 | O=C(COc1ccc(F)cc1Cl)N(Cc1nnc(-c2ccccc2Cl)o1)C1CC1 | 0.721%
72 | CCNc1nc(NCC)nc(Oc2ccc(OCC)nn2)n1 | 18.1%
73 | N#C/C(=C\c1ccc(O)cc1)C(=O)N1CCCC1 | 6.83%
74 | Cc1cc2c(s1)Nc1ccccc1N=C2N1CCN(C)CC1 | -7.44%
75 | Cc1ccc(CSc2ncnc3c2cnn3-c2ccc(C)cc2)cc1 | 19.3%
76 | Cn1c(=O)c(=O)n(C)c2cc(S(=O)(=O)NCc3ccc(Cl)cc3)ccc21 | 1.52%
77 | O=C(CCc1ccccc1)N1CCN(S(=O)(=O)c2cccs2)CC1 | -4.2%
78 | Cc1ccc(SCc2cc(=O)[nH]c(N3CCN(Cc4ccc5c(c4)OCO5)CC3)n2)cc1 | 5.53%
79 | O=c1c2c3n(c(=S)nc2[nH]n1-c1ccccc1)CCCCC3 | 8.28%
80 | COc1ccc(-c2nc(C)c(C(C)=O)n2O)cc1 | 18.5%
81 | COc1cccc(C2=NOC(C(=O)Nc3cccnc3)C2)c1 (centres unmarked) | 11.8%
82 | COc1cc(-c2noc(CCCC(=O)NCc3ccco3)n2)cc(OC)c1OC | 6.36%
83 | CC(=O)Nc1ccc(S(=O)(=O)NCC(=O)OC(C)c2ccccc2Cl)cc1 (centres unmarked) | 3.21%
84 | O=C(CCc1nc2ccccc2c(=O)[nH]1)OCC(=O)N1CCc2ccccc21 | 9.67%
85 | Cc1ccc(C)c(NC(=O)CN(C)C(=O)c2cccc(S(=O)(=O)N3CCN(Cc4ccccc4)CC3)c2)c1 | 3.09%
86 | CC(C)C(NC(=O)c1ccccc1)C(=O)NCC(c1ccccc1)N(C)C (centres unmarked) | 9.28%
87 | COc1ccc(NC(=O)Nc2nnc(Cc3ccccc3)s2)cc1 | 6.42%
88 | O=C1CC(C(=O)O)C2(CCCC2)O1 (centres unmarked) | 5.63%
89 | O=C(CN(Cc1ccc(F)cc1)C(=O)CCC(=O)Nc1nccs1)NCC1CCCO1 (centres unmarked) | 16.7%
90 | O=C(Oc1ccc2c(c1)OCO2)c1cccs1 | 7.85%
91 | O=C(c1cc(COc2ccc(F)cc2Cl)on1)N1C[C@H]2CC[C@H]1C2 | 6.77%
92 | O=C(CCC(=O)Nc1cccc([N+](=O)[O-])c1)NCc1ccccc1 | 10.2%
